{"source": "paper PMC4336329", "about": "(PLoS ONE, 2015)", "note": "The whole screen tested about 310,000 compounds, of which about 2,200 (0.71%) showed an effect of 50% or more. Effects have a minus sign here. Some of the results follow.", "data": [{"target": "human ether-à-go-go-related gene (hERG) potassium channel (human, UniProt Q12809)", "sequence (Q12809 whole entry, looked up)": "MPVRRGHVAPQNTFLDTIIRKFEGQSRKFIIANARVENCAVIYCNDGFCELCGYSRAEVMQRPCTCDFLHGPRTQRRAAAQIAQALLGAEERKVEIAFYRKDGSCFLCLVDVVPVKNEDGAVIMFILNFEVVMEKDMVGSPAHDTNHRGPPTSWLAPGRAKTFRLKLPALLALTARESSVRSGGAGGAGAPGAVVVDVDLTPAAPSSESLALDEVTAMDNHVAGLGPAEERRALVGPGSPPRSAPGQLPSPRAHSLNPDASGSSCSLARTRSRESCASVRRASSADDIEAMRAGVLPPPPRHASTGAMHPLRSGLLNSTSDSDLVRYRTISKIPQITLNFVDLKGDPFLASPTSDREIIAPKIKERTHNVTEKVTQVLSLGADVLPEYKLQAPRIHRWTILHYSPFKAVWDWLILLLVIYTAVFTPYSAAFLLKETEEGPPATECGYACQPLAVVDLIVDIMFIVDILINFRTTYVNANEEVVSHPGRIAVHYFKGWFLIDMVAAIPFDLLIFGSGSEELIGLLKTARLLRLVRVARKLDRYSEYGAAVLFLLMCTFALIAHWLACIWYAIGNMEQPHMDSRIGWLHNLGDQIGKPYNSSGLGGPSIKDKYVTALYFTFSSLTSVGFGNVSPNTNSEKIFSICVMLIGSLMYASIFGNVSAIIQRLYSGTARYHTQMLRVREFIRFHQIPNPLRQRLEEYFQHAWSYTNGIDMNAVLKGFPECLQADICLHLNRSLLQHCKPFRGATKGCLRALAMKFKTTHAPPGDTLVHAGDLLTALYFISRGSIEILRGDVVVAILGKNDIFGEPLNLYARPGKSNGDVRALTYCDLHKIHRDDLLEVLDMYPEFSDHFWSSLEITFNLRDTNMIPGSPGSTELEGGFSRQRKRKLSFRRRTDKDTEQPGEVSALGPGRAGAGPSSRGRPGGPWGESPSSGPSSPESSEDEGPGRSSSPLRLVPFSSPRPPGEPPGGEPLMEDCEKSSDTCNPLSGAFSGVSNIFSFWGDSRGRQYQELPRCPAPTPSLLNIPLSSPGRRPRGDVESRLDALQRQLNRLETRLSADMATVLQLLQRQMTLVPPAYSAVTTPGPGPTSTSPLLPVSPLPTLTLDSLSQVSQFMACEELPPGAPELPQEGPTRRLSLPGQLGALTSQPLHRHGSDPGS", "assay": "primary screen, population patch clamp on CHO cells stably expressing hERG", "units": {"hERG current change (%, negative = inhibition) at 1uM": "%"}, "values": [{"compound": "Cc1ccc(S(=O)(=O)NN2C(=O)c3ccccc3NC2c2cccc(O)c2)cc1", "note": "(stereo not shown)", "hERG current change (%, negative = inhibition) at 1uM": 6.19}, {"compound": "[N-]=[N+]=NC[C@H](c1ccccc1)N1CCN(Cc2ccccc2)CCC1=O", "hERG current change (%, negative = inhibition) at 1uM": 8.04}, {"compound": "O=C(C1CCOCC1)N1CCCC(N2CCN(c3ccc(F)cc3)CC2)C1", "note": "(stereo not shown)", "hERG current change (%, negative = inhibition) at 1uM": 5.9}, {"compound": "COc1ccc2[nH]c(=O)c(CN(CCO)C(=O)NCc3ccccc3)cc2c1", "hERG current change (%, negative = inhibition) at 1uM": 0.186}, {"compound": "COc1cc(C(=O)NCCNc2nc3ccc(C)cc3cc2C#N)cc(OC)c1OC", "hERG current change (%, negative = inhibition) at 1uM": 9.87}, {"compound": "CCCn1nnnc1NCc1ccccc1OCc1cccs1", "hERG current change (%, negative = inhibition) at 1uM": 9.23}, {"compound": "COc1ccc(C(=O)N/C(=C\\c2cn(C)c3ccccc23)C(=O)NCCCn2ccnc2)cc1OC", "hERG current change (%, negative = inhibition) at 1uM": 17.3}, {"compound": "CCOc1ccc(Oc2nc(NCC(C)C)nc(OC)n2)nn1", "hERG current change (%, negative = inhibition) at 1uM": 7.02}, {"compound": "CCOC(=O)NC(=O)c1cn(C(CC)CO)c(=O)[nH]c1=O", "note": "(stereo not shown)", "hERG current change (%, negative = inhibition) at 1uM": 11.5}, {"compound": "CCCCNC(=O)NNC(=O)c1ccco1", "hERG current change (%, negative = inhibition) at 1uM": 3.04}, {"compound": "Cc1cccc(C(=O)Nc2ccc(C(=O)Nc3ccc(O)cc3)cc2)c1", "hERG current change (%, negative = inhibition) at 1uM": 7.7}, {"compound": "CC(C)CCn1c(N2CCN(c3cccc(Cl)c3)CC2)nc2c1c(=O)[nH]c(=O)n2C", "hERG current change (%, negative = inhibition) at 1uM": -4.54}, {"compound": "CCOC(=O)c1cc(C(=O)NC(C)c2ccccc2)c(=O)[nH]c1C", "note": "(stereo not shown)", "hERG current change (%, negative = inhibition) at 1uM": 15.2}, {"compound": "CCN(CC)N=Nc1[nH]nc2nc(C)cc(C)c12", "hERG current change (%, negative = inhibition) at 1uM": 14.5}, {"compound": "CCOc1ccc(C2=CSC3=NCCN23)cc1", "hERG current change (%, negative = inhibition) at 1uM": 13.4}, {"compound": "CCCn1c(N)c(C(=O)CSc2nc(C)cs2)c(=O)n(C)c1=O", "hERG current change (%, negative = inhibition) at 1uM": 4.46}, {"compound": "Cc1cc2nc(C3CCN(C(=S)NCC(C)C)CC3)[nH]c2cc1C.O=C(O)C(=O)O", "hERG current change (%, negative = inhibition) at 1uM": -12.2}, {"compound": "CCOC(=O)Cn1ncc(-c2ccccc2)c1N", "hERG current change (%, negative = inhibition) at 1uM": -3.65}, {"compound": "CCCNS(=O)(=O)c1ccc(OCC(=O)Nc2ccccc2F)cc1", "hERG current change (%, negative = inhibition) at 1uM": -5.69}, {"compound": "COc1ccc(-c2ccc([C@H]3[C@H]4C=CC[C@@H](C)[C@@H]4C(=O)N3Cc3ccccc3)c(F)c2)cc1", "hERG current change (%, negative = inhibition) at 1uM": 9.65}, {"compound": "COc1ccccc1-c1ccc(SCC(=O)NC2CCCCC2)nn1", "hERG current change (%, negative = inhibition) at 1uM": -27.2}, {"compound": "COC1=Cc2c(ccc3ccc(=O)oc23)OC1(C)C", "hERG current change (%, negative = inhibition) at 1uM": 6.94}, {"compound": "C=C(C)C(=O)Nc1cccc(C2=NOC3(C2)C[C@@H](C(N)=O)N(C(=O)C2(C)CC2)C3)c1", "note": "(stereo partly shown)", "hERG current change (%, negative = inhibition) at 1uM": 14.2}, {"compound": "COc1ccc(CNC(=O)C2CCN(C(=O)c3cccc(Cl)c3)CC2)cc1", "hERG current change (%, negative = inhibition) at 1uM": -3.93}, {"compound": "CC1=CC(=O)C=C(C)C1=NOc1ccc([N+](=O)[O-])cc1", "hERG current change (%, negative = inhibition) at 1uM": -11.7}, {"compound": "CC1=C(C(=O)Nc2cccc(C(=O)N3CCN(c4cccc(C(F)(F)F)c4)CC3)c2)SCCO1", "hERG current change (%, negative = inhibition) at 1uM": 1.26}, {"compound": "O=C1COC(c2ccccc2)=CN1Cc1ccccc1", "hERG current change (%, negative = inhibition) at 1uM": 6.87}, {"compound": "O=C(O)Cc1nn(Cc2ccc(Cl)cc2)c(=O)c2ccccc12", "hERG current change (%, negative = inhibition) at 1uM": 8.5}, {"compound": "COCc1ccc(C(=O)N2CCCC(C(=O)c3cccc(C(F)(F)F)c3)C2)o1", "note": "(stereo not shown)", "hERG current change (%, negative = inhibition) at 1uM": 9.37}, {"compound": "CC1(C)O[C@H]2CC(=O)OC[C@@]23C1CC(=O)[C@]1(C)C3CC[C@@]2(C)[C@H](c3ccoc3)OC(=O)[C@H]3O[C@]321", "note": "(stereo partly shown)", "hERG current change (%, negative = inhibition) at 1uM": 6.21}, {"compound": "COc1cccc(C2(O)CCN(C(=O)C3CCC3)CC2)c1", "hERG current change (%, negative = inhibition) at 1uM": 13.8}, {"compound": "Cn1c(=O)c2nncnc2n(C)c1=O", "hERG current change (%, negative = inhibition) at 1uM": 8.41}, {"compound": "CCn1cc(C(=O)Nc2cccc(NC(C)=O)c2)c2cc(OC)c(OC)cc2c1=O", "hERG current change (%, negative = inhibition) at 1uM": 12.5}, {"compound": "CC(CC(=O)O)CC1=NS(=O)(=O)c2ccccc2N1", "note": "(stereo not shown)", "hERG current change (%, negative = inhibition) at 1uM": 13.4}, {"compound": "COc1ccc(Br)cc1/C=N/NC(=O)c1cccc(S(=O)(=O)N2CCOCC2)c1", "hERG current change (%, negative = inhibition) at 1uM": 10.4}, {"compound": "CN1C(=O)COc2c(C(=O)NC3CN4CCC3CC4)cc(Cl)cc21.Cl", "note": "(stereo not shown)", "hERG current change (%, negative = inhibition) at 1uM": 6.73}, {"compound": "CCN1C(=O)C2(C(C(=O)c3cc4ccccc4o3)=C(O)C(=O)N2CCCN(C)C)c2ccccc21", "note": "(stereo not shown)", "hERG current change (%, negative = inhibition) at 1uM": 15.8}, {"compound": "COc1ccc(C(=O)CSc2nc(-c3ccccn3)nc(C)c2Cl)cc1", "hERG current change (%, negative = inhibition) at 1uM": 13}, {"compound": "N[C@H](CSCc1ccccc1)C(=O)Nc1ccc([N+](=O)[O-])cc1", "hERG current change (%, negative = inhibition) at 1uM": 10.5}, {"compound": "COc1ccc2nc(NC(=O)c3cccc(-c4cc5ccccc5oc4=O)c3)sc2c1", "hERG current change (%, negative = inhibition) at 1uM": 10.7}, {"compound": "COc1ccc(NC(=O)CSc2ccc([N+](=O)[O-])cc2)cc1S(=O)(=O)N1CCOCC1", "hERG current change (%, negative = inhibition) at 1uM": 1.51}, {"compound": "COc1ccc(C(=O)N/N=C(\\C)c2ccccn2)cc1OC", "hERG current change (%, negative = inhibition) at 1uM": 15.7}, {"compound": "N#C/C(=C\\c1cccc(OCC(=O)O)c1)c1nc2ccccc2[nH]1", "hERG current change (%, negative = inhibition) at 1uM": 14.8}]}]}
